Test results reported in PubChem BioAssay AID2101 (National Center for Advancing Translational Sciences (NCATS), 2009).
Out of some 330,000 compounds screened, about 300 (0.091%) were called active. The inconclusive results got no clear call from the source; some entries with a clear call stand among them for comparison. The call rests on the fitted dose curve; in most records, active means well fitted inhibition curve with a large enough effect; inconclusive means small, poorly fitted or top-dose-only effect, or effect the other way, or another doubt; inactive means no such curve, though single readings can be large or run the other way. Potencies of inconclusive entries are left out as doubtful fits.

Target: Lysosomal acid glucosylceramidase (Homo sapiens) (UniProt P04062)
Test: qHTS Assay for Inhibitors and Activators of N370S glucocerebrosidase as a Potential Chaperone Treatment of Gaucher Disease;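 on activity change, negative = inhibition: 0% = full enzyme activity and -100% = no enzyme basal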
Conditions: N370S GC spleen homogenate, 4MU-glucoside fluorescence; activity change, negative = inhibition: at 59.4 µM (top of the series) unless noted
Potency means the concentration at half of the fitted maximal effect.

Which Potency does the source give for `COc1ccccc1CC(=O)Nc1ccc2c(C)cc(=O)oc2c1` here?
Its Potency is inconclusive [activator, single point].

With `COc1ccccc1C(=O)Nc1ccc2oc(-c3ccc(F)cc3)nc2c1` as the compound, how does the Potency read?
The Potency was inconclusive [inhibitor, partial curve].

How did the Potency turn out when `CCCCN=Cc1sc2ccc(OCC)cc2c1O` was run?
Its Potency is inconclusive [activator, full curve].

`COc1ccc(-n2c(=S)[nH]c3ccccc3c2=S)cc1` was tested. Which “activity change, negative = inhibition” value did it give?
Its value is inactive: -2.38%.

Which Potency does the source give for `CCC(C)Sc1cccc(-c2nc3ccc(C)cn3c2NCc2ccccc2)c1` (centres undefined) here?
The Potency was inconclusive [inhibitor, full curve].

With `O=C(NC1CCCC1)c1ccc2c(c1)N(Cc1ccccc1)CCS2` as the compound, how does the Potency read?
The Potency was inconclusive [activator, full curve].

Which activity change, negative = inhibition does the source give for `Cc1cccc(N2CCN(C(=O)CS(=O)(=O)Cc3nc(-c4ccccc4F)oc3C)CC2C)c1` (centres undefined) here?
Its activity change, negative = inhibition is inconclusive: 43% [activator].

With `O=C(CSc1nc2ccccc2c(=O)n1CC1CCCO1)Nc1ccccc1Cl` (centres undefined) as the compound, how does the Potency read?
Its Potency is inconclusive [activator, single point].

How did the Potency turn out when `c1ccc(C[C@H]2CNCCN2CCCCC2CCCCC2)cc1` was run?
Its Potency is inconclusive [inhibitor, single point].

Which “activity change, negative = inhibition” value does the source give for `CCc1nnc(NC(=O)c2ccc(S(=O)(=O)N3CCCCCC3)cc2)s1` here?
Its value is inactive: 10.8%.

`COc1ccc(NC(=S)N2CCCC(c3nc4ccc(C)cc4[nH]3)C2)c(OC)c1` (centres undefined) was tested. Which “activity change, negative = inhibition” value did it give?
Its value is inactive: 13.5%.

Which Potency does the source give for `Cc1cc(SCC(=O)NC2CCCCC2)nc2ccccc12` here?
Its Potency is inconclusive [activator, single point].

`COc1ccc(-c2cc(C(F)F)n3ncc(C(=O)N4CCN(C)CC4)c3n2)cc1` was tested. Which “activity change, negative = inhibition” value did it give?
The value was inactive: -7.2%.

For `COc1cccc(Cn2c(=O)c(-c3cccs3)nc3cnc(N4CCOCC4)nc32)c1`, which “activity change, negative = inhibition” value is on record?
The value was inactive: 20.7%.

`O=C(NCc1ccco1)c1cc(-c2ccc(Cl)cc2)on1` was tested. Which Potency did it give?
Its Potency is inconclusive [inhibitor, partial curve, poor fit].

How did the Potency turn out when `Cc1ccc(C)c(N2CCN(S(=O)(=O)c3ccc4c(c3)NC(=O)CC(=O)N4)CC2)c1` was run?
Its Potency is active: 14.1 µM.

Which Potency does the source give for `CCCCCc1cc(=O)oc2c(C(CCN3CCCC3)c3ccc(N(C)C)cc3)c(OC)cc(OC)c12` (centres undefined) here?
Its Potency is inconclusive [inhibitor, single point].

For `CCOC(=O)c1cccc(NC(=O)CCNS(=O)(=O)c2ccc3c(c2)CCN3C(=O)CC)c1`, which Potency is on record?
The Potency was inconclusive [activator, partial curve].

`COc1ccc(-c2nc(-c3ccccc3OC)no2)cc1OC` was tested. Which “activity change, negative = inhibition” value did it give?
The value was inactive: -8.21%.

`COc1cc(Cl)c(NS(=O)(=O)c2cc3[nH]c(=O)c(=O)[nH]c3cc2C)c(OC)c1` was tested. Which Potency did it give?
Its Potency is inconclusive [inhibitor, partial curve].

Which Potency does the source give for `CCCCCCSC1=C(C#N)C(c2ccc(O)cc2)CC(=O)N1` (centres undefined) here?
Its Potency is inconclusive [inhibitor, single point].

For `CC(NC(=O)COc1ccccc1Cl)c1ccccc1` (centres undefined), which Potency is on record?
Its Potency is inconclusive [activator, single point].

`CCn1c(CSc2nccn2C)nc2cc(C(=O)O)ccc21` was tested. Which Potency did it give?
Its Potency is inconclusive [activator, partial curve].

For `CC(=O)N1CC[C@@H]2CC(=O)CC[C@@H]21`, which “activity change, negative = inhibition” value is on record?
The value was inactive: -5.67% [at 136 µM].

For `COc1cccc(NC(=S)Nc2cc(C)cc(C)n2)c1`, which Potency is on record?
The Potency was inconclusive [activator, partial curve].

With `CCN(CC)c1ccc(/C=N/NC(=O)CNC(=O)c2cccs2)cc1` as the compound, how does the Potency read?
Its Potency is inconclusive [activator, single point].

Which Potency does the source give for `COCCCn1c(-c2ccc(OC)cc2)nc2c1c(=O)[nH]c(=O)n2Cc1ccccc1` here?
Its Potency is inconclusive [activator, partial curve].

`CCc1cc(=O)oc2cc(C)cc(OC(C)C(=O)NCCN3CCOCC3)c12` (centres undefined) was tested. Which Potency did it give?
The Potency was inconclusive [inhibitor, partial curve].

With `Cc1cc(C(F)(F)F)c(C#N)c(=O)[nH]1` as the compound, how does the Potency read?
Its Potency is inconclusive [activator, single point].

Which Potency does the source give for `Cc1ccc2cc(CN(CC3CCCO3)C(=S)NCc3ccco3)c(=O)[nH]c2c1` (centres undefined) here?
Its Potency is inconclusive [activator, partial curve, poor fit].

How did the Potency turn out when `CCCCOc1ccc(C(O)(CCN2CCOCC2)c2ccccc2)cc1` (centres undefined) was run?
The Potency was inconclusive [inhibitor, partial curve].

`Cn1c(CNc2ccccc2O)nc2ccccc21` was tested. Which “activity change, negative = inhibition” value did it give?
Its value is inactive: 11.2%.

Which Potency does the source give for `CCN1CCCC1CNC(=O)c1ccc2c(=O)n(CCOC)c(=O)[nH]c2c1` (centres undefined) here?
The Potency was inconclusive [activator, partial curve, poor fit].

With `O=C(COC(=O)c1ccccc1NC(=O)c1ccco1)NCCC1=CCCCC1` as the compound, how does the Potency read?
Its Potency is inconclusive [activator, partial curve].

How did the “activity change, negative = inhibition” value turn out when `CCOc1ccc(NC(=O)CN2C(=O)NC(CCSC)C2=O)cc1` (centres undefined) was run?
Its value is inactive: 2.56%.

Which Potency does the source give for `CC1CC(=O)N(CC(=O)Nc2ccc(Br)cc2)c2ccccc2S1(=O)=O` (centres undefined) here?
Its Potency is inconclusive [activator, partial curve].

`CCC(C)c1ccc(S(=O)(=O)N2CC(=O)Nc3ccccc32)cc1` (centres undefined) was tested. Which Potency did it give?
Its Potency is inconclusive [inhibitor, single point].

`CCc1nnc(NC(=O)c2ccc(-c3ccccc3Cl)o2)s1` was tested. Which activity change, negative = inhibition did it give?
The activity change, negative = inhibition was inconclusive: 18.4% [activator].

With `CCCNC(=O)OC[C@@H]1O[C@H](CCO/N=C\[C@@H](C)[C@H](OCc2ccccc2)C(C)C)C=C[C@@H]1Oc1ccc(OC)cc1` as the compound, how does the activity change, negative = inhibition read?
Its activity change, negative = inhibition is inactive: -2.71% [at 12.8 µM].

How did the Potency turn out when `Cc1ccnc(NC(=O)Nc2ccc(Br)cc2Cl)c1` was run?
The Potency was inconclusive [activator, partial curve, poor fit].

`Cc1sc(NC(=O)c2ccccc2F)c(CN2CCCCC2)c1C` was tested. Which “activity change, negative = inhibition” value did it give?
The value was inactive: -6.44%.

Which Potency does the source give for `S=C(Nc1ccc(Oc2ccccc2)cc1)NC1CCCCC1` here?
Its Potency is inconclusive [activator, single point].

`COCCN(Cc1nc2ccccc2c(=O)[nH]1)C(=O)COc1ccccc1-c1ccccc1` was tested. Which Potency did it give?
Its Potency is inconclusive [activator, partial curve].

`C=CCn1cccc(C(=O)Nc2ccc(OCC)cc2)c1=O` was tested. Which Potency did it give?
Its Potency is inconclusive [activator, single point].
